Data taken from the supplement of paper PMC11417369.
± gives the standard deviation of the averaged measurements. This is one part of the list.

Test system: PfAP2-I AP2 domain 3 (GST-tagged)
Experiment: gcPBM binding intensity (ln(normalized median fluorescence intensity)); higher = stronger DNA binding
Summary of the method: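 DNA-binding domains from P. falciparum, fused to GST and produced in E. coli, were put on an Agilent 4 × 180k double-stranded probe array for 1 h in 1× PBS holding 1% milk, 0.2 mg/ml BSA, 0.5% salmon testes DNA and 0.03% Triton X-100. Probes were primer-extended, 36 bp long and drawn from intergenic genomic regions, with negative controls included. After Alexa488 anti-GST antibody detection and a 488 nm scan, binding intensity was set as the highest Masliner-normalised natural-log median intensity across replicate spots of either probe orientation.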

| Sequence | gcPBM binding intensity (ln) |
| --- | --- |
| AACGTTCAATTTAAATGTACAAATGTATTTAAATAT [XGTACX_site315] | 7.68 ± 0.54 |
| TTTCTTTTTTCATTTACACACAATAATATAAGAATA [CACACA_site3164] | 7.94 ± 0.48 |
| TACACAAATATATATATATATATATATATATATATA [XGTACX_negctrl_site305] | 9.55 ± 0.5 |
| TATTTATGTTCATATAAACACACGTAAAATTCAAGG [CACACA_site1538] | 7.92 ± 0.59 |
| CATATTCATAAAAGTTGTACATGCAATTTTTTTTTT [XGTACX_site2261] | 7.71 ± 0.54 |
| TCAATAAAAAAAAACGCACACACAAATATATTCCAT [CACACA_site1223] | 8.18 ± 0.52 |
| GTCCCTATAAGGGGAACACACATAAATGGATATATA [CACACA_site6612] | 7.59 ± 0.52 |
| TAAATGGGTGTTAATGCACACGATATGTCTATATAT [CACACA_site5321] | 10.8 ± 0.67 |
| TATTTATTTTTCTGTTGTACTTTTCAACATGTTACA [XGTACX_site7457] | 7.85 ± 0.61 |
| TCTACATATTAATTATGTACGAATTATTATTAGTAA [XGTACX_site6924] | 7.39 ± 0.23 |
| ATACTATATATATAAGTGCATGTTCATTATACCTAA | 8.39 ± 0.75 |
| ATAACTAAATGATATTGTACAAAATAATTATATATT [XGTACX_site1331] | 7.7 ± 0.45 |
| ATATATATTATGTGTGTGCACTTTTGTTATTATTAT | 9.83 ± 0.014 |
| CATTATATGATTTATGTGCACATTCATTTATTTTAA | 9.48 ± 0.23 |
| TATTAATAAAACCGTTGTACTACATACATAAATATT [XGTACX_site5578] | 7.9 ± 0.44 |
| AAAAATCAATTAGAAGAACACACGTAAATTTTTTTT [CACACA_site2396] | 7.58 ± 0.82 |
| TTATAACACATTACATGTACAAATATAAATATATTC [XGTACX_site6503] | 7.68 ± 0.45 |
| AAAAATATATATAACACACACATAATATATATATAT [CACACA_site2537] | 9.2 ± 0.3 |
| AAAAAAAAAAAAAAATGTACAAAAATTACTATAAAA [XGTACX_site7683] | 8.05 ± 0.42 |
| TTTTTTTTTGTTTACACACACAAAATATTATATGTA [CACACA_site2470] | 7.79 ± 0.74 |

| Sequence | gcPBM binding intensity (ln) |
| --- | --- |
| TATTATTACGTAATATGTACATATATTTATACCACT [XGTACX_site5918] | 8.09 ± 0.38 |
| AGGAAAAACTTGAATGCATGCGCACATTCTAGTTTG [TGCATGCA_site776] | 7.75 ± 0.92 |
| ATAAATACTAGGCACACACACATATATATATATATA [CACACA_site2080] | 9.33 ± 0.21 |
| ATATATATATATATATGTACATATATGTATACCTTA [XGTACX_site6791] | 9.38 ± 0.67 |
| CAATAGTTCTTATGGGTGCAAACCACATATATATAA [GTGCAC_site9606] | 10.2 ± 0.27 |
| TTTATTTATCTGTATACACACTTTAATGAAAAGTTG [CACACA_site5400] | 7.87 ± 0.49 |
| ACAAATCTAAGATAGTGTACATTTATATATATATAT [XGTACX_site8740] | 9.4 ± 0.24 |
| TTTATATACACACAGAAGAACAGAAATATTATATAT [TGCATGCA_negctrl_site483] | 7.79 ± 0.69 |
| AATATAAATAAAAACACACACACACCCATATATATA [CACACA_site2267] | 8.32 ± 0.66 |
| TATATATATATATAAGTGCATATAAAAATCGTTCGT | 10.3 ± 0.11 |
| ATATATATATAATAAACACACACATATACATATATG [CACACA_site9145] | 9.04 ± 0.092 |
| ATTTTTTTTTTTTTTTTTTTTTTTTGGAGAAAGAGA [CACACA_negctrl_site1119] | 7.7 ± 0.46 |
| TATTTTTTTTTTATATGTACATAATTTCAAATAAAT [XGTACX_site7747] | 7.97 ± 0.41 |
| AAGGATATAACATACACACACACACCGATATATATA [CACACA_site6136] | 8.21 ± 0.67 |
| AAAATTATATATTATTGTACATAAAATTTTGACATA [XGTACX_site4886] | 7.65 ± 0.51 |
| ATAACGATATATGTGCGTACTTATAGAATAAGCAAA [XGTACX_site6743] | 7.89 ± 0.47 |
| ATATATCATATTATAGTGCATTTATAATAATATTAT | 10.8 ± 0.13 |
| TATTATCTGTAGTGTACACATATTATATAGTACTTT [CACACA_site4582] | 8.27 ± 0.6 |
| TTTTTTTTGTTGTTGTTGCACTTGATAGGAATGGCT [GTGCAC_site9701] | 9.57 ± 0.057 |
| CCATTTACAAAAAGGAGTACACAAATATATGTTTAA [XGTACX_site649] | 8.1 ± 0.22 |

| Sequence | gcPBM binding intensity (ln) |
| --- | --- |
| AAAAAAAACAGACACACACACAAATACATACACAAA [CACACA_site705] | 7.92 ± 0.4 |
| TACTTACAGATAATAACACACAAGAAAAAAATAAAA [CACACA_site4716] | 7.92 ± 0.83 |
| AATATTTATGGGTGCACACAAACATACAGATATATA [CACACA_site5810] | 10.7 ± 0.29 |
| TATATATATATCAAGTGTACTTGTGTTTGTAATATT [XGTACX_site8854] | 9.165 ± 0.049 |
| TACAAATATGGACACACACACATATTTATATTTATA [CACACA_site6420] | 7.8 ± 0.41 |
| AAAAAACAGACATACACACACACACGGATATTTATA [CACACA_site7570] | 7.82 ± 0.73 |
| ATATAAATGTATATGACACACATATATATATATATA [CACACA_site889] | 9.31 ± 0.35 |
| TTTGAATATATAAATATGCACACTTCTATTATAAAT [CACACA_site3359] | 8.87 ± 0.35 |
| TTCTTATATAAATACACACACAAAATATCTACAATG [CACACA_site4568] | 7.97 ± 0.33 |
| TATTATTTTTCCTAATGTACAAAATATATATTTTTA [XGTACX_site2727] | 7.8 ± 0.51 |
| ATGTTGCACAATGTTACACACACAATATATATCGTT [CACACA_site4833] | 9.91 ± 0.22 |
| TATATTAGAAGAAATTCACACATTCATGTAATCTTA [CACACA_site4706] | 7.11 ± 0.51 |
| AATCGATTGGATAATATTTTTTCTCTTAATTTTTTG [GTGCAC_negctrl_site165] | 7.43 ± 0.33 |
| AAAAAAATAAAAAGGAACGTCTATAGTTAATTTATT [CACACA_negctrl_site919] | 7.61 ± 0.95 |
| AAAATTTTTAAATATTGTACTATTTATTTTTAGCAT [XGTACX_site6190] | 7.71 ± 0.54 |
| TATATATATATATTTACACACATTCATATAAATTCA [CACACA_site3532] | 9.31 ± 0.22 |
| GCCTACAGACTTAGTAGTACATGAGAAGATATATAT [XGTACX_site2269] | 8 ± 0.59 |
| AATATGAACGGACACACACACACAAAAAAAAAAAAA [CACACA_site5154] | 8.06 ± 0.5 |
